# Measurements published in a collection of fitness landscapes (doi:10.1016/j.celrep.2020.107928).
# Over roughly 81,000 sequences, “one-hybrid fitness for binding NBS DNA” has its median near -0.1; the highest 2% begin near 0.36. This is one part of the list.
# B1: Caulobacter ParB omega fusion; a variant is named by its letters at X, in order, B8GW30 (parent)
# chain: MESVVVGEPGMSEGRRGLGRGLSALLGEVDAAPAQAPGEQLGGSREAPIEILQRNPDQPRRTFREEDLEDLSNSIREKGVLQPILVRPSPDTAGEYQIVAGERAWRAAQRAGLKTVPIMVRELDDLAVLEIGIIENVQRADLNVLEEALSYKVLMEKFERTQENIAQTIGKSXSHVANXMRLLXLPDEVQSYLVSGELTAXHARAIAAAADPVALAKQIIEGGLSVRETEALARKAPNLSAGKSKGGRPPRVKDTDTQALESDLSSVLGLDVSIDHRGSTGTLTITYATLEQLDDLCNRLTRGI
# Variants of: B1
# Assay: one-hybrid fitness for binding NBS DNA (the Noc-binding site; scaled: cognate 1, non-cognate 0); higher = stronger binding
# Conditions: with NBS DNA site
# In short: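 Selection: bacterial one-hybrid in E. coli USO, HIS3 reporter with the site 19 bp from the promoter, 48 hours at 37°C on M9-minus-histidine plus 0.1 mM IPTG and 5 mM 3-AT. Libraries were Caulobacter ParB with four randomised specificity codons, sequenced on Illumina before and after selection. Fitness is the rescaled log change in variant-to-wild-type read ratio, anchored to the cognate and non-cognate sites.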
row,Variant,one-hybrid fitness for binding NBS DNA
1,NPPF,≤ 0.2
2,SGFR,≤ 0.2
3,HTVW,≤ 0.2
4,LCTL,≤ 0.2
5,TQSD,≤ 0.2
6,WSNM,≤ 0.2
7,VIWS,≤ 0.2
8,ANGR,≤ 0.2
9,SHGN,≤ 0.2
10,LQPD,≤ 0.2
11,KWRT,≤ 0.2
12,LMRG,≤ 0.2
13,QMKY,0.516
14,VANR,≤ 0.2
15,ANYY,≤ 0.2
16,NHRR,≤ 0.2
17,HLNR,≤ 0.2
18,WLET,≤ 0.2
19,ASIC,≤ 0.2
20,AQTK,≤ 0.2
21,CYCC,≤ 0.2
22,WIGP,≤ 0.2
23,PNKN,≤ 0.2
24,TFHT,≤ 0.2
25,QIWC,≤ 0.2
26,REPL,≤ 0.2

row,Variant,one-hybrid fitness for binding NBS DNA
1,QKQC,≤ 0.2
2,QIMR,0.348
3,SPDT,≤ 0.2
4,QCGF,≤ 0.2
5,YHSL,≤ 0.2
6,KTMT,≤ 0.2
7,FCGS,≤ 0.2
8,VLVI,≤ 0.2
9,SNPS,≤ 0.2
10,MFSL,≤ 0.2
11,HLKH,≤ 0.2
12,SIER,≤ 0.2
13,QGAK,≤ 0.2
14,YSPW,≤ 0.2
15,PMPE,≤ 0.2
16,IWDM,≤ 0.2
17,DRCW,≤ 0.2
18,AMLA,≤ 0.2
19,QRYA,0.588
20,GNLA,≤ 0.2
21,GILC,≤ 0.2
22,SRIA,≤ 0.2
23,DADR,≤ 0.2
24,KQLV,≤ 0.2
25,SYNL,≤ 0.2
26,RFMC,≤ 0.2

row,Variant,one-hybrid fitness for binding NBS DNA
1,DVSG,≤ 0.2
2,VQGC,≤ 0.2
3,WQTR,≤ 0.2
4,GVCC,≤ 0.2
5,FWLG,≤ 0.2
6,CQAK,≤ 0.2
7,MTSC,≤ 0.2
8,AQSP,≤ 0.2
9,YMTE,≤ 0.2
10,RICE,≤ 0.2
11,LVPW,≤ 0.2
12,PVSC,≤ 0.2
13,QKQS,0.458
14,PRSC,≤ 0.2
15,DSPK,≤ 0.2
16,ISRS,≤ 0.2
17,LRGF,≤ 0.2
18,PKGT,≤ 0.2
19,IYDR,≤ 0.2
20,AAHC,≤ 0.2
21,PCTI,≤ 0.2
22,SELT,≤ 0.2
23,CHSR,≤ 0.2
24,QSLL,≤ 0.2
25,IPLG,≤ 0.2
26,ACWG,≤ 0.2

row,Variant,one-hybrid fitness for binding NBS DNA
1,RGES,≤ 0.2
2,CSRS,≤ 0.2
3,SDSE,≤ 0.2
4,SQMV,≤ 0.2
5,VWTG,≤ 0.2
6,EVES,≤ 0.2
7,DSAT,≤ 0.2
8,RGLN,≤ 0.2
9,FTIT,≤ 0.2
10,SIFS,≤ 0.2
11,RQLS,0.322
12,ALHV,≤ 0.2
13,IYCR,≤ 0.2
14,MLPG,≤ 0.2
15,EGGS,≤ 0.2
16,WMYS,≤ 0.2
17,QHPM,≤ 0.2
18,WWTT,≤ 0.2
19,YLYC,≤ 0.2
20,RWKW,≤ 0.2
21,MMSG,≤ 0.2
22,RPDC,≤ 0.2
23,TWRW,≤ 0.2
24,ALQA,≤ 0.2
25,SQVG,≤ 0.2
26,HMWW,≤ 0.2

row,Variant,one-hybrid fitness for binding NBS DNA
1,NSAS,≤ 0.2
2,QPIG,≤ 0.2
3,VRAG,≤ 0.2
4,PHIS,≤ 0.2
5,RCFF,≤ 0.2
6,PACM,≤ 0.2
7,MQVG,≤ 0.2
8,MCTY,≤ 0.2
9,RLGW,≤ 0.2
10,VDKG,≤ 0.2
11,RCEV,≤ 0.2
12,RAMQ,≤ 0.2
13,CFRG,≤ 0.2
14,RTIN,≤ 0.2
15,VNSR,≤ 0.2
16,QYKG,0.294
17,LTNC,≤ 0.2
18,QMWL,≤ 0.2
19,TRVE,≤ 0.2
20,YADV,≤ 0.2
21,SCFI,≤ 0.2
22,RLIL,≤ 0.2
23,RVIQ,≤ 0.2
24,NLRW,≤ 0.2
25,KVRQ,≤ 0.2
26,NGSG,≤ 0.2

row,Variant,one-hybrid fitness for binding NBS DNA
1,TGHG,≤ 0.2
2,MWKT,≤ 0.2
3,FPSN,≤ 0.2
4,ETTC,≤ 0.2
5,MIIG,≤ 0.2
6,LGTR,≤ 0.2
7,IQRG,≤ 0.2
8,RGQV,≤ 0.2
9,SCRS,≤ 0.2
10,TNHF,≤ 0.2
11,THFL,≤ 0.2
12,IRWP,≤ 0.2
13,HLFS,≤ 0.2
14,RHQK,≤ 0.2
15,MKSG,≤ 0.2
16,NLTN,≤ 0.2
17,TGML,≤ 0.2
18,CPER,≤ 0.2
19,YWRF,≤ 0.2
20,EMGY,≤ 0.2
21,ATYC,≤ 0.2
22,MPYG,≤ 0.2
23,DRGE,≤ 0.2
